Reference: paper PMC11208920
Results are given in words; binding and its absence hold for the method and conditions named. For some assays here: Binding seen in cells or lysates may run through a third protein. Some binding calls cover weakened binding; strength is not graded here. For some assays here: Sequences can lack the tags named with a protein.

B1: DNAAF6, full size clone from a Mouse Embryonic Fibroblast cDNA library (yeast two-hybrid prey) (protein, UniProt Q3KNI6 1-218)
chain: MESENAEAENVVTGNLEAKSKEGKNMQFVTLSSAWSLQALSSLLNPEEEDGFDFEQGQCSFTIGAMGPGNIGPPKAKESKAIPEPRSDESENIWNPEEVPEGAEHDDIWDVREIPDYEIVFQQTVGTEDVYLGLTRKDPSTACCQELVVKIKLPNTNPSEIQIDIQEMLLDLRTPRKKLLVNFPQPVERNSARASYIWEAETLEVRMTVQRDLDFNIS
B2: Flag-tagged human DNAAF6 (expressed in HEK293T cells) (protein, UniProt Q9NQM4 1-214)
chain: MESENMDSENMKTENMESQNVDFESVSSVTALEALSKLLNPEEEDDSDYGQTNGLSTIGAMGPGNIGPPQIEELKVIPETSEENNEDIWNSEEIPEGAEYDDMWDVREIPEYEIIFRQQVGTEDIFLGLSKKDSSTGCCSELVAKIKLPNTNPSDIQIDIQETILDLRTPQKKLLITLPELVECTSAKAFYIPETETLEITMTMKRELDIANFF
B3: HA-tagged full-length human LARP6 (protein, UniProt Q9BRS8 1-491)
chain: MAQSGGEARPGPKTAVQIRVAIQEAEDVDELEDEEEGAETRGAGDPARYLSPGWGSASEEEPSRGHSGTTASGGENEREDLEQEWKPPDEELIKKLVDQIEFYFSDENLEKDAFLLKHVRRNKLGYVSVKLLTSFKKVKHLTRDWRTTAHALKYSVVLELNEDHRKVRRTTPVPLFPNENLPSKMLLVYDLYLSPKLWALATPQKNGRVQEKVMEHLLKLFGTFGVISSVRILKPGRELPPDIRRISSRYSQVGTQECAIVEFEEVEAAIKAHEFMITESQGKENMKAVLIGMKPPKKKPAKDKNHDEEPTASIHLNKSLNKRVEELQYMGDESSANSSSDPESNPTSPMAGRRHAATNKLSPSGHQNLFLSPNASPCTSPWSSPLAQRKGVSRKSPLAEEGRLNCSTSPEIFRKCMDYSSDSSVTPSGSPWVRRRRQAEMGTQEKSPGTSPLLSRKMQTADGLPVGVLRLPRGPDNTRGFHGHERSRACV
B4: Flag-tagged human DNAAF6 D133Y (protein, UniProt Q9NQM4 1-214)
chain: MESENMDSENMKTENMESQNVDFESVSSVTALEALSKLLNPEEEDDSDYGQTNGLSTIGAMGPGNIGPPQIEELKVIPETSEENNEDIWNSEEIPEGAEYDDMWDVREIPEYEIIFRQQVGTEDIFLGLSKKYSSTGCCSELVAKIKLPNTNPSDIQIDIQETILDLRTPQKKLLITLPELVECTSAKAFYIPETETLEITMTMKRELDIANFF
B5: Flag-tagged human DNAAF6 Q171∗ (expressed in HEK293T cells) (domain or fragment, UniProt Q9NQM4 1-170)
chain: MESENMDSENMKTENMESQNVDFESVSSVTALEALSKLLNPEEEDDSDYGQTNGLSTIGAMGPGNIGPPQIEELKVIPETSEENNEDIWNSEEIPEGAEYDDMWDVREIPEYEIIFRQQVGTEDIFLGLSKKDSSTGCCSELVAKIKLPNTNPSDIQIDIQETILDLRTP

Key:
[1] = target: T1, human LARP6 fragment, aa 73-303 (yeast two-hybrid bait) (human) (UniProt Q9BRS8); experiment: two-hybrid; yeast two-hybrid screen; hLARP6 aa 73-303 in pGBKT7 as bait against a Clontech Mouse Embryonic Fibroblast Matchmaker cDNA library; His auxotrophy and LacZ activation
T1 sequence: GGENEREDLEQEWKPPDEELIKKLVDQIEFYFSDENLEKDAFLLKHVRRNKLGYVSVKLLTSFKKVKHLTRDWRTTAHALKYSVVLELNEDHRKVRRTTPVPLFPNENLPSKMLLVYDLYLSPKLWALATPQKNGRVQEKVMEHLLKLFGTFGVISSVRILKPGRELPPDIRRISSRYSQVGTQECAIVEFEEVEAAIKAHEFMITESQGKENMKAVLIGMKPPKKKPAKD

[2] = target: T2, HA-tagged full-length human LARP6 (human) (UniProt Q9BRS8); experiment: co-IP; HEK293T cells transfected with tagged proteins; HA-tagged LARP6 forms immunoprecipitated from cleared lysate (0.5% NP-40 lysis buffer, 4 °C, protein A/G-agarose), Flag-tagged DNAAF6 analysed in the precipitate
T2 sequence: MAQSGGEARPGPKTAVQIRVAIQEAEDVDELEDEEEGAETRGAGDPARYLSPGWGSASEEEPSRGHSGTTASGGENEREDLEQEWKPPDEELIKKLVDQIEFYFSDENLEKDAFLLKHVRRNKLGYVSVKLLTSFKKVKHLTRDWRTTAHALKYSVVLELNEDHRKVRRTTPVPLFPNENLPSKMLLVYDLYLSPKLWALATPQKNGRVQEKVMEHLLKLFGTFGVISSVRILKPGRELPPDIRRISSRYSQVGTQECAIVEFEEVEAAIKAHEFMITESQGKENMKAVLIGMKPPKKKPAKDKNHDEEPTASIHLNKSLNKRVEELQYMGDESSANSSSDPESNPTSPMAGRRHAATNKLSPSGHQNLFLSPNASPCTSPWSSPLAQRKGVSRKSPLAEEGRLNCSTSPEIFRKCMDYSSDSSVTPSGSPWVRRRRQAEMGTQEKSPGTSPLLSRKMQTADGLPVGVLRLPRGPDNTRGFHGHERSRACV

[3] = target: T3, Flag-tagged human DNAAF6 (expressed in HEK293T cells) (human) (UniProt Q9NQM4); experiment: co-IP; HEK293T cell extract; Flag-tagged hDNAAF6 immunoprecipitated, HA-tagged FL hLARP6 analysed in the precipitate; extract untreated or treated with RNase before coimmunoprecipitation
T3 sequence: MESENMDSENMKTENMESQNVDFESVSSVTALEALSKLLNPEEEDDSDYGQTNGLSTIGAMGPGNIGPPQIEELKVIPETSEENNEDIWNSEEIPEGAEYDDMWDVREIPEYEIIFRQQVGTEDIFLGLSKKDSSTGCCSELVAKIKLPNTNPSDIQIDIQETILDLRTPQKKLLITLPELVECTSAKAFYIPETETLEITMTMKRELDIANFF

Row | Binder | binding [2] | other results
1 | B1 |  | binding [1]: binds
2 | B2 | binds | 
3 | B3 |  | binding [3]: binds
4 | B4 | binds | 
5 | B5 | no binding | 
